The source gives no read counts; variants with many changes may rest on few reads.

B1: LINE1-mini (parent)
chain: GGCAGAGCUCAACACAGCGUGGCAAAGUGGCUGUGGCUAGACUGCC

The variants in this data set derive from B1. The experiment in a line: self-cleavage, relative activity (ratio to wild type); higher = more cleavage; in vitro, sequencing; the parent is a self-cleaving ribozyme.
Consider GGUAGAGCUCAACACAGCGUGGCAAUGUGGCUGUGGCUAGACUGCG [C3U A26U C46G], for which the self-cleavage came to 0.21.
Consider GGUAGAGCUCAACACAGCGUGGCAAAGUGGCUGUGGCUAGCCUGCU [C3U A41C C46U], for which the self-cleavage is 0.06.
The value for GGUAGAGAUCAAUACAGGGUGCCAAAGUGGCUUUGGCUAGACUGCC [C3U C8A C13U C18G G22C G33U] was 0.14; that for GGUAGAGGUAAACACAGCGUGGCAAAGUGGCCGUGGCUAGACUGCC [C3U C8G C10A U32C] was 0.02.
The value for GGUAGAGCUCAACACAGCGUGGCAGAGUCGCUGUGGCUAGACUUCC [C3U A25G G29C G44U] was 0.05; that for GGUAGAGGUCAACACAGCGUGGCUAAGUGGCUGUGGGUAGACUGCC [C3U C8G A24U C37G] was 0.09.
The value for GGUAGAGCUCAACACAGCGUGGCAAAGUGGCUGUGGCUAGGCCGCC [C3U A41G U43C] was 0.3; that for GGUAGAGCUCAACACAGCGUGGCGAAGUGGCUGAGGCAAGACUGCC [C3U A24G U34A U38A] was 0.06.
In the case of GGUAGAGAUCAACACAGCGUGGCAAAGUGGCUGUGGACAGACUGUC [C3U C8A C37A U38C C45U], the self-cleavage stood at 0.49.
The value for GGUAGAGCUCAACACAGCGUGGCACAGUGGCUGUGGCUACACUGCC [C3U A25C G40C] was 0.06; that for GGUAGAGGUCAACCCAGCGUGGCAGAGUGGCUGUGGCUAGUCUGCC [C3U C8G A14C A25G A41U] was 0.01; that for GGUAGAGCUCAACACAGCGUGGCAGAGUGGCUGUGGCUUGACUGCC [C3U A25G A39U] was 0.12.
GGUAGAGCUCAACACAGCGUGGCCAAGUGGGUGUGGCUAGACUGCC [C3U A24C C31G]: the self-cleavage worked out at 0.03.
Regarding GGUAGAGCUCAACACAGCGUGGCAGAGUCGCUGUGGCUAGACUGCC [C3U A25G G29C], the self-cleavage is 0.99.
In the case of GGUAGAGGUCAACACAGCGUGGCAUAGUGGCUUUGGCUUGACUGCC [C3U C8G A25U G33U A39U], the self-cleavage is 0.06.
The value for GGUAGAGCUCAACACCGCUUGACAAAGUGGCUGCGGCUAGACUGCC [C3U A16C G19U G22A U34C] was 0.07.
The value for GGUAGAGAUCAACCCAGCGUGGCAAAGUGGCUGUGGCUAGACUGCC [C3U C8A A14C] was 0.
Take GGUAGAGGUCAACACAGCGUGGUAAUGUGGCUGUGGCUAGACUGCC [C3U C8G C23U A26U]: the self-cleavage was 0.66.
The value for GGUAGAGCUCAACACAGCGUGGCACAGUGGCUGUGGCUAGACUGCA [C3U A25C C46A] was 0.26; that for GGUAGAGCUCAACACGGCGUGCCAAAGUGGCUGUGGCUAGACUGCG [C3U A16G G22C C46G] was 0.03.
With GGUAGAGCUCAACACAGCGUGGCUAAGUGGCGGUGGAUAGAUUGCC [C3U A24U U32G C37A C42U], the self-cleavage worked out at 0.08.
Consider GGUAGAGAUCAACACAGCGUGGCAAAGUGGCUGUGGCUAGAUUGCC [C3U C8A C42U], for which the self-cleavage amounted to 0.16.
Regarding GGUAGAGAUCAACACAGAGUGGCAAAGUGGCUGUGGCUAGACUGCC [C3U C8A C18A], the self-cleavage turned out to be 0.32.
As for GGUAGAGCUCAACACAGCGUGGCUAAGUGACUGUGGCUAGACUGCC [C3U A24U G30A], the self-cleavage is 1.25.
Take GGUAGAGCUCAACACAGCGUGGCGAAGUAGCUGUGGCUACCCUGCC [C3U A24G G29A G40C A41C]: the self-cleavage worked out at 0.17.
The same measure for GGUAGAGCUCAACACAGCGUGGCUAAGUGGCUGUAUCUAGACUGCC [C3U A24U G35A G36U]: 0.04; for GGUAGAGCUCAACACCGAGUCGCAGAGUGGCUGUGGCUCGACUGCC [C3U A16C C18A G21C A25G A39C]: 0.01; for GGUAGAGCUCAACACAGCGUGGCCAAGUGGAUGUGCCUAGACUGUC [C3U A24C C31A G36C C45U]: 0.03.
The same measure for GGUAGAGGUCAACCCAGCGUGGCAAAGUGGAUGUGGCUAGACUGCC [C3U C8G A14C C31A]: 0.09.
The same measure for GGUAGAGAUCAUCACAGCGUGGCAAAGUGGCUGUGGCAAGACUGCC [C3U C8A A12U U38A]: 0.1; for GGUAGAGCUCAACACAGCGUGGCAUUGUGACUGUGGCUAGACUGCC [C3U A25U A26U G30A]: 0.74; for GGUAGAGAUCAACACAGCCUUGCAAAGUGGCUGUGGCUAGACUGCG [C3U C8A G19C G21U C46G]: 0.03.
As for GGUAGAGCUCAACACAGCGUGGCACAGUGGCUGUGGCGAGACUGCC [C3U A25C U38G], the self-cleavage came to 0.02.
The same measure for GGUAGAGCUCAACACAGCGUGGCAACGUGGCUGCGGCUUGACUGCC [C3U A26C U34C A39U]: 0.03; for GGUAGAGCUCAACACCGCGUGGCAAAGUGGCUGUGGCUAGUCUGCC [C3U A16C A41U]: 0.21; for GGUAGAGCUCAACACUGCGGGGCAAAGUUGCUGUGGCUAGACUGCC [C3U A16U U20G G29U]: 0.03.
As to GGUAGAGCUCAACACUGCGUGGCGAAGUGGCUGUGGCUAGACUGCC [C3U A16U A24G], the self-cleavage is 0.01.
The same measure for GGUAGAGCUCAACACAGCGUGGCAUAGUGGCUGUUGCUAGACUGCC [C3U A25U G35U]: 0.04; for GGUAGAGAUCAACACUGCGUGGCCAAGGGGCUGUGGCUAGACUGCC [C3U C8A A16U A24C U28G]: 0.75.
On to GGUAGAGCUCAACACAGCGUGGCACAGUGGCUGUGGCUAGAAUGCC [C3U A25C C42A], for which the self-cleavage is 0.11.
The value for GGUAGAGCUCAACACAGCGUGGCAAAGUGGCUGUGGCUAGGUUGCC [C3U A41G C42U] was 0.21.
The value for GGUAGAGCUCAACACUGCCUGGCAAAGUGGCUGUGGCUAGACUGCC [C3U A16U G19C] was 0.05.
Take GGUAGAGGUAAACACAGCGUGGCAAAGUGGCUGUGGCUAGACUGUC [C3U C8G C10A C45U]: the self-cleavage turned out to be 0.01.
In the case of GGUAGAGACCAUCACAGCGUGGCAAAGUGGCUGUGGCUAGACUGCC [C3U C8A U9C A12U], the self-cleavage was 0.07.
Consider GGUAGAGCUCAACACAGCGUGGCUAAGUGGCUGUGGCUCGACUGCC [C3U A24U A39C], for which the self-cleavage amounted to 0.11.
For GGUAGAGAUCAACACAGCGUGGCAAAGUGGCUGUAGCUACACUGCC [C3U C8A G35A G40C], the self-cleavage came to 0.03.
Regarding GGUAGAGCUCAACACAGCGUGGCAGAGUGGCUGAGGCUAGACUGCC [C3U A25G U34A], the self-cleavage amounted to 0.01.
For the variant GGUAGAGCUCAACACUGCGUGGCACAGUGGCUGUGGCUAGACUGCC [C3U A16U A25C], the self-cleavage was 0.1.
The value for GGUAGAGCUCAACACAGCGUGGCAUAGUGUCUGCCGCUAGACUGCC [C3U A25U G30U U34C G35C] was 0.03.
As to GGUAGAGGUCAACACAGCGUGGCGAAGUGGCUGUGGCUAGAUUGCC [C3U C8G A24G C42U], the self-cleavage turned out to be 0.19.
The value for GGUAGAGAUCAACACAGCGUGGCAAAGUGGCUGUGCCUAGACUGCC [C3U C8A G36C] was 0.35; that for GGUAGAGCUCAACACGGCGUGGCAAAGUGGCUGUGGAUAGACUGCC [C3U A16G C37A] was 0.07.
The same measure for GGUAGAGAUCAACACAGUGUGGCAAAGUGGCUGCGGCUAGACUGCC [C3U C8A C18U U34C]: 0.04; for GGUAGAGCUCAACACAGCGUGGCAAGGUGGCUGUGUCUAGACUGCC [C3U A26G G36U]: 0.03; for GGUAGAGCUCAACACAGCGUGGCACAGUGGCUGUGGCUGGACUGCC [C3U A25C A39G]: 0.01.
For GGUAGAGGUCAACACUGCGUGGCAAAGUGGCUGUGGCUAGACUGCC [C3U C8G A16U], the self-cleavage came out at 0.09.

(Values after the RNAGym collection of RNA variant scans (doi:10.7554/elife.90254).)
